Data from the supplement of paper PMC7826260.
The list shows a part of the results. The data describe in vitro nicking of single-stranded DNA by Rep domains for 1 h at 37 °C with 3 µM enzyme; only the middle of the 90-letter strands is printed. Values are log2 of uncut reads against the no-enzyme pool; strong cutting gives strongly negative numbers. There is no active / inactive call. Because reads are shares of a total, they shift together; where an enzyme cuts many sequences, the uncut ones exceed 0.

Columns and labels:
Assay in all cases: uncleaved DNA left, log2 of reads against the no-enzyme library (log2 ratio); higher = less cleavage (more negative = more Rep cleavage of the k-mer); sequences stand for … in CTCGTCCG…ACCGGAGA
[1] = tested on: T1, Rep nickase domain of Muscovy duck circovirus
T1 sequence (protein, residues 1-111, tag omitted): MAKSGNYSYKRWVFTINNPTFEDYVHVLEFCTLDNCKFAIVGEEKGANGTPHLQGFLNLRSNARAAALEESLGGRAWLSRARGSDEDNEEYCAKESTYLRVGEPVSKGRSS
Description: (§1)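 A pool of 90-nt single-stranded DNAs with seven random bases just before the constant AC of the nick site (name = the seven bases) was cut by 3 µM recombinant His6-SUMO-tagged Rep nickase domain (300 nM DNA, 50 mM HEPES pH 8.0, 50 mM NaCl, 1 mM MnCl2, 1 h, 37 °C, three replicates). Uncut DNA was amplified and sequenced.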

[2] = tested on: T2, Rep nickase domain of banana bunchy top virus
T2 sequence (protein, residues 1-94, tag omitted): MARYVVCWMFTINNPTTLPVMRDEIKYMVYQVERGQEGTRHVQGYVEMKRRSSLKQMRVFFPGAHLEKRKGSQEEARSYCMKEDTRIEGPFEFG
Description: as §1

[3] = tested on: T3, Rep nickase domain of cabbage leaf curl virus
T3 sequence (protein, residues 1-116, tag omitted): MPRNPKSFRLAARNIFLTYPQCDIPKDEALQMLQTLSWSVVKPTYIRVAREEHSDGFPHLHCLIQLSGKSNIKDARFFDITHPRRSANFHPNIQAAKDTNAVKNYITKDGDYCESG
Description: as §1

[4] = tested on: T4, Rep nickase domain of chickpea chlorotic dwarf virus
T4 sequence (protein, residues 1-124, tag omitted): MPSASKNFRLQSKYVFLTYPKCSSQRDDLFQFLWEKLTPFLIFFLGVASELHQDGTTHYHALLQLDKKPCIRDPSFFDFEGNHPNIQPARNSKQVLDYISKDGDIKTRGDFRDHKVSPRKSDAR
Description: as §1

[5] = tested on: T5, Rep nickase domain of faba bean necrotic yellows virus
T5 sequence (protein, residues 1-98, tag omitted): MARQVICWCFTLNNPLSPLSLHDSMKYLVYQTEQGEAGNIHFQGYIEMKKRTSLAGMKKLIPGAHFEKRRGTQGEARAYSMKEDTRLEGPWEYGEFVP
Description: as §1

[6] = tested on: T6, Rep nickase domain of maize striate mosaic virus
T6 sequence (protein, residues 1-117, tag omitted): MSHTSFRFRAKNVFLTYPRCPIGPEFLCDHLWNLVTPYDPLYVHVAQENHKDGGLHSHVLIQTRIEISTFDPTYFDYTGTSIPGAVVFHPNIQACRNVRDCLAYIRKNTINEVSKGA
Description: as §1

[7] = tested on: T7, Rep nickase domain of porcine circovirus 2
T7 sequence (protein, residues 2-116, tag omitted): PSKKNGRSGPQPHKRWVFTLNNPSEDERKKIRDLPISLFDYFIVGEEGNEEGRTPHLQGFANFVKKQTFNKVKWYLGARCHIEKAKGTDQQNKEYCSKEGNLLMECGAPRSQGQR
Description: as §1

[8] = tested on: T8, Rep nickase domain of tomato golden mosaic virus
T8 sequence (protein, residues 1-124, tag omitted): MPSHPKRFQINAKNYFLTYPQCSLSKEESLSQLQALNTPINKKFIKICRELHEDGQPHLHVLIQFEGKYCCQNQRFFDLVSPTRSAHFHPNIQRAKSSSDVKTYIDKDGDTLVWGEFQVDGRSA
Description: as §1

[9] = tested on: T9, Rep nickase domain of tomato yellow leaf curl virus
T9 sequence (protein, residues 1-136, tag omitted): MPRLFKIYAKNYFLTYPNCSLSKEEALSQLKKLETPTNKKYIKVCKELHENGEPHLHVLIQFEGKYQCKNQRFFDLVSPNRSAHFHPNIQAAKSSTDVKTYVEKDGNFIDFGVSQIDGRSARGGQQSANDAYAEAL
Description: as §1

[10] = tested on: T10, Rep nickase domain of wheat dwarf virus
T10 sequence (protein, residues 1-137, tag omitted): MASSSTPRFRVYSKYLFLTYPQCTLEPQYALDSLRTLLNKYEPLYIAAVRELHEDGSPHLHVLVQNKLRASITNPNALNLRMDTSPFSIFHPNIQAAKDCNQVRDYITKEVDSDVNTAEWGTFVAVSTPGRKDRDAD
Description: as §1

Sequence	uncleaved DNA left (log2) [1]	uncleaved DNA left (log2) [2]	uncleaved DNA left (log2) [3]	uncleaved DNA left (log2) [4]	uncleaved DNA left (log2) [5]	uncleaved DNA left (log2) [6]	uncleaved DNA left (log2) [7]	uncleaved DNA left (log2) [8]	uncleaved DNA left (log2) [9]	uncleaved DNA left (log2) [10]
ACGTCTC	-0.00936	0.0149	0.0219	-0.0188	-0.0129	-0.176	-0.114	-0.0482	-0.0446	0.0169
CTCCCAA	-0.0479	0.0751	-0.00236	-0.311	0.0569	-0.481	-0.0348	-0.029	0.0625	0.1
GCGGGAC	-0.0451	0.0945	0.794	1.77	-0.121	2.21	0.195	0.175	-0.0153	0.0538
CCCTACC	-0.204	-0.0201	-0.248	-2.29	-0.0139	-0.684	-0.839	-0.103	-0.036	-0.133
CGATACC	0.0215	0.0701	0.143	0.269	-0.000246	0.35	-0.152	0.0939	0.0277	-0.00549
AATATTT	-0.788	-2.97	-2.73	-3.1	-0.00138	-1.06	-4.12	-0.165	-0.0557	-0.412
GAACTCT	-0.0595	-0.00681	-0.249	-2.34	-0.00397	0.702	-0.232	-0.0686	-0.0424	-0.0791
GATCGCG	-0.0631	-0.138	-0.777	0.704	-0.0399	-0.505	0.0444	-0.169	-0.0112	-0.107
CATTCCA	-0.503	-0.846	-0.0458	-1.9	0.08	-0.378	-0.7	-0.101	0.139	0.0203
GGCTCAC	0.0201	0.042	0.428	1.03	-0.0203	1.66	0.117	0.0754	0.0562	0.115
TTACCAG	-0.00889	-0.0462	-0.972	-1.93	-0.113	-1.2	-0.906	-0.107	0.0133	-0.0882
GAAGGTC	-0.00567	0.0562	0.367	0.75	-0.00863	1.18	-0.198	0.132	-0.0258	0.0762
CGCACCG	0.0237	0.0394	-0.777	-0.51	-0.000697	-0.918	0.101	-0.087	-0.093	-0.186
CAGATTT	0.03	-3.11	-0.896	-2.89	-2.29	-0.445	-4.1	-0.142	-0.00773	-0.315
TTTTATG	0.11	0.02	-0.362	-0.578	0.0374	-1.02	0.211	0.0303	0.0625	0.0238
GCGAGGT	0.0528	0.0249	0.14	0.626	0.128	1.32	0.061	0.083	0.0425	0.136
GGAAGGC	-0.0567	-0.108	0.652	1.42	-0.0489	1.78	0.12	-0.0603	-0.0883	0.0463
GACAATT	0.15	-0.00773	0.476	-0.962	-0.0397	1.61	-2.05	-0.0404	0.115	0.139
AGGTGAA	0.0522	0.112	0.295	0.774	-0.0445	1.35	0.00935	0.0193	-0.0159	-0.0215
TCTGACC	0.0215	0.162	0.0851	0.64	0.0889	0.911	0.165	0.113	-0.0584	0.0194

Sequence	uncleaved DNA left (log2) [1]	uncleaved DNA left (log2) [2]	uncleaved DNA left (log2) [3]	uncleaved DNA left (log2) [4]	uncleaved DNA left (log2) [5]	uncleaved DNA left (log2) [6]	uncleaved DNA left (log2) [7]	uncleaved DNA left (log2) [8]	uncleaved DNA left (log2) [9]	uncleaved DNA left (log2) [10]
TCGCGAG	0.0935	0.0339	0.0432	0.17	-0.168	-0.719	0.115	-0.0501	0.0679	0.000901
ACTATTA	0.0812	0.236	-0.146	-1.37	0.122	-0.456	0.111	0.181	0.104	0.199
CTCGCTG	0.0134	-0.0124	0.195	0.642	-0.00559	0.866	0.0714	0.0606	-0.118	-0.0625
ACGCTTG	-0.0852	-0.0347	-0.453	-0.664	0.0599	-0.724	0.128	0.106	0.0949	-0.101
GGCGTGT	-0.162	-0.0136	0.346	0.74	-0.0263	1.32	0.02	0.0549	0.0571	0.027
GCGCCAA	0.0614	0.109	0.0732	0.503	0.0118	0.519	0.0185	0.00329	0.206	0.162
TTGTACT	-3.67	-2.37	-0.237	-2.54	-2.89	-0.653	-3.82	-0.212	-0.0866	-0.261
TCAATTA	0.0871	-0.0706	-0.0731	-1.33	0.00211	-0.591	-0.164	-0.0265	-0.0312	-0.0918
CCCATTT	-0.101	-0.0474	-0.304	-2.59	-0.134	-0.829	-0.159	-0.0992	0.0042	-0.0761
CTGAGAA	0.102	0.014	0.0579	0.13	0.0787	-0.361	0.0986	0.0341	-0.00543	0.0422
GGAGAGG	0.144	0.0415	0.608	1.37	0.0691	1.66	0.339	0.223	0.0767	0.0886
GGCTGGA	0.0146	-0.0668	0.356	1	-0.0312	1.47	0.0467	-0.0437	-0.0958	-0.0355
AGGCGGT	-0.0481	-0.0153	0.0574	0.935	0.0159	1.13	0.137	0.185	-0.0999	-0.117
TGACAGC	0.0483	0.0599	0.573	1.16	0.00574	1.27	0.219	0.0388	-0.0157	0.161
AATCAGT	-0.0529	0.0247	-0.435	-1.3	0.0445	-1.09	-1.92	0.0161	0.0051	-0.0874
GACGCGA	0.0664	-0.0931	-0.526	-0.229	0.228	-0.688	0.0818	0.00527	-0.0461	-0.0641
CGCCTTG	-0.154	-0.287	-0.411	-0.135	-0.169	0.0402	-0.102	-0.31	-0.211	-0.114
AGAGTGG	0.197	0.0186	-0.0326	0.0625	0.0837	-0.4	0.099	0.126	-0.0221	0.0784
CAGCGCC	-0.153	-0.153	-0.334	-0.436	-0.111	-0.765	-0.0219	-0.17	-0.107	-0.23
CTCGGTG	-0.0775	-0.0813	-0.578	-0.645	0.0231	-0.781	0.118	-0.0662	-0.0675	-0.263

Sequence	uncleaved DNA left (log2) [1]	uncleaved DNA left (log2) [2]	uncleaved DNA left (log2) [3]	uncleaved DNA left (log2) [4]	uncleaved DNA left (log2) [5]	uncleaved DNA left (log2) [6]	uncleaved DNA left (log2) [7]	uncleaved DNA left (log2) [8]	uncleaved DNA left (log2) [9]	uncleaved DNA left (log2) [10]
AGAAAAT	0.0227	-0.0147	0.212	0.202	-0.00789	0.0535	-0.197	0.0389	-0.018	0.0637
CGTAAAA	0.024	0.0798	0.00829	0.172	0.00904	-0.689	0.0286	0.0493	-0.0157	0.0393
TTCCTTT	-0.0685	-0.0929	-0.132	-1.97	-0.091	-0.425	-0.526	-0.0593	-0.0118	-0.209
TCCGTAG	0.0207	0.124	-0.337	-0.295	-0.179	-0.814	0.0337	-0.0414	-0.00927	-0.113
TATGAGG	0.163	0.0605	0.49	1.13	0.0864	1.14	0.206	0.127	0.0906	0.123
GTCGTAG	-0.048	0.122	0.299	0.707	-0.041	1.83	0.0883	0.164	0.0338	0.102
AACGTCC	-0.132	-0.0264	-0.263	-0.522	-0.123	-0.657	-0.217	-0.169	-0.083	-0.106
TTATATT	-3.75	-2.9	-3.88	-3.66	-0.637	-2.56	-3.57	-3.39	-0.194	-3.53
CTAGAAC	0.0878	0.0787	0.0652	-0.327	0.0792	-0.452	0.195	0.0682	0.00659	-0.0361
CCGCGGT	0.0296	-0.0577	0.139	-0.302	0.103	-0.243	0.00124	0.0213	-0.0659	0.0184
AATAGCG	-0.0973	-0.0478	-0.616	0.811	-0.0493	-0.24	0.00681	-0.123	0.0118	-0.144
TCCACAC	-0.048	-0.0925	0.0215	-0.452	-0.101	-0.499	-0.0523	-0.0561	-0.0582	-0.0665
CCGCTCA	-0.024	-0.0895	-0.0679	-0.913	-0.223	-0.481	-0.0821	-0.243	-0.0151	-0.15
ATCCAAC	-0.0508	0.0092	-0.174	-1.26	0.0262	-0.829	0.0474	0.0193	-0.0533	0.0129
GTAATCC	0.0613	0.0591	0.347	0.871	0.00295	1.56	0.0699	-0.0344	0.0583	0.114
GGGTCCC	-0.104	0.0142	0.505	1.43	-0.0867	1.89	0.103	-0.0468	0.0181	0.0982
TGAGCAC	0.0056	-0.0188	0.0781	0.372	-0.0136	0.253	0.0619	0.0318	-0.0556	0.0725
CGACTTA	0.103	0.301	0.22	0.46	0.0547	1.32	0.0284	-0.0275	0.0293	0.178
GGGTGAG	0.176	0.137	0.781	1.84	0.0773	1.9	0.263	0.16	0.0794	0.159
ACAGCTT	-0.0231	-0.131	-0.415	-2.19	-0.0996	-0.792	-0.0429	-0.0193	-0.119	-0.0208
